Test results reported in PubChem BioAssay (NCI).
Values joined by “and” are separate entries in the source; they are usually repeats but may differ in a detail not shown here. Equal entries are not always repeated.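 48-hour exposure; five concentrations; linearly interpolated endpoints. GI50 = concentration required for 50% inhibition of growth. TGI: total growth inhibition.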 Numbered stars: 1 amine (or outer) side, 2 acyl side, 3 side chain; on linkers, the order of the positions; unused ones are H or OH. Bridge positions count the residues as written; N and C are the ends. Square brackets hold non-standard residues; d marks the D form. Peptide text beside a SMILES is read from it. ξ: configuration not given here. X30 = CCC(C)C(N[*:1])C(O)CC(=O)O[C@H](C(=O)C(C)C(=O)[*:2])C(C)C; X29 = O=C([C@@H]1CC(O)CN1[*:1])[*:2]; NMeY = CN[C@@H](Cc1ccc(O)cc1)C(=O)O; ξNMeL = CNC(CC(C)C)C(=O)O; ξT = CC(O)C(N)C(=O)O

The molecules below were run on NCI-H322M lung (assay: NCI tumour cell line growth inhibition, 48 h).

| SMILES | GI50 | TGI |
| --- | --- | --- |
| c1ccc(-c2nc(Nc3ccc(-c4nc5ccccc5[nH]4)cc3)nc(N3CCOCC3)n2)cc1 | 1.65 µM | 3.31 µM |
| C=CCOc1cc2c(cc1C(C)c1ccc(OC)cc1)OCO2 (stereo unspecified) |  | > 100 µM |
| COC(=O)c1c/c(=N\NC(=O)CC(=O)Nc2ccccc2Cl)c2ccccc2o1 |  | > 100 µM |
| CC1CCCc2c(-c3ccc(Cl)cc3)nc(N)c(C#N)c21 (stereo unspecified) |  | > 100 µM |
| O=C1/C(=C/c2cccc([N+](=O)[O-])c2)CCCc2ccccc21 |  | 31.3 µM |
| Fc1ccc(C(OCCN2CCC3CCC(C2)N3CCCc2ccccc2)c2ccc(F)cc2)cc1 (stereo unspecified) |  | 23.1 µM |
| CCn1c(=O)c2c(=O)[nH][nH]c2c2ccccc21 |  | > 100 µM |
| O=C(/C=C/c1ccc(O)c(O)c1)NC(CO)C(=O)O (stereo unspecified) |  | > 100 µM |
| COc1ccc2c(c1)c(Cc1c(C)n(C)c3ccc(OC)cc13)c(C)n2C |  | > 100 µM |
| C[C@]12CC[C@H]3[C@@H](CC=C4C[C@@H](O)CC[C@@]43C)[C@@H]1C/C(=C\c1cccc(OCCN3CCOCC3)c1)[C@@H]2O | > 100 µM | > 100 µM |
| CCCOC(=O)c1cc(C(=CCC[C@H]2CC[C@@]3(C)[C@@H](CC[C@@H]4[C@@H]3CC[C@]3(C)[C@@H](C(C)CCCC(C)C)CC[C@@H]43)C2)c2cc(Cl)c(O)c(C(=O)OCCC)c2)cc(Cl)c1O (stereo partly specified) |  | > 50 µM |
| COc1ccc(-c2ccc(/C=N/n3cn[nH]c3=S)o2)c([N+](=O)[O-])c1 | 43 µM | > 100 µM |
| COc1cc(N2CCC(N(C)C)CC2)ccc1Nc1ncc(Cl)c(Nc2ccccc2P(C)(C)=O)n1 | 0.782 µM and 0.412 µM | > 28.2 µM and 3.8 µM |
| CCOc1ccc(C2c3[nH]c4ccccc4c3CCN2C(=O)c2cccs2)cc1 (stereo unspecified) |  | > 100 µM |
| C/C(C=O)=C1\C(O)C[C@]1(C)C1CC(C)(C)CC1O (stereo partly specified) |  | > 100 µM |
| NN/C(=N\S(=O)(=O)c1cc(Cl)c(Oc2ccc([N+](=O)[O-])cc2Cl)c(Cl)c1)Nc1ccc(Cl)cc1 |  | 63.9 µM |
| O=C1C(NCCO)=C(N2CC2)C(=O)C(NCCO)=C1N1CC1 |  | > 100 µM |
| CN1C(c2ccccc2)CC(=Nc2ccccc2)CC1c1ccccc1 (stereo unspecified) |  | 43.7 µM |
| COc1ccc(/C=C/C(=O)c2ccc(Nc3ncnc4ccccc34)cc2)cc1OC | 30.3 µM | > 100 µM |
| CC(=O)c1c2c(cc3c1CC1(Cc4cc5c(cc4C1)CCC5)C3)CCC2 |  | > 100 µM |
| C/C(C=O)=N\Nc1cc(C)c2ccccc2n1 |  | 41.5 µM |
| O=C(Cc1ccccc1)N/N=C(/CCN1CCCC1)CC(c1ccccc1)c1c(O)c2ccccc2oc1=O (stereo unspecified) |  | > 100 µM |
| Oc1ccccc1C=Nc1ccc(Oc2ccc(Cl)cc2)c(Cl)c1 |  | 80.4 µM |
| CC(=O)OC1[C@H]2c3cc4c(cc3CN3CCC(C[C@@H]1OC(C)=O)C23)OCO4 (stereo partly specified) |  | > 75 µM |
| Cc1c(CCN=P(c2ccccc2)(c2ccccc2)c2ccccc2)c(=O)n2c([nH]c3ccccc32)c1C#N |  | > 10 µM |

| SMILES | GI50 | TGI |
| --- | --- | --- |
| C[N+](C)(C)CC1Cc2ccccc2C1=O (stereo unspecified) |  | > 10 µM |
| O=C(O)CC(Cc1ccc2c(c1)OCO2)C(=O)O (stereo unspecified) |  | > 100 µM |
| CN(C(=O)C1=CCCCCC1)c1ccccc1I |  | > 100 µM |
| COc1cc(C)cc2c1OC(c1ccccc1)CC2=O (stereo unspecified) | > 100 µM | > 100 µM |
| CC1(C)OC2C(CO)OC(n3ccc(=O)[nH]c3=O)C2O1 (stereo unspecified) |  | > 100 µM |
| COc1cc2c(cc1OCCCCCOc1cc(-c3ccc(F)cc3)nc(C)n1)N=C[C@@H]1CCCN1C2=O | > 53.6 µM | > 88.1 µM |
| CC(C#N)Nc1ccc(Oc2ccc(C(C)(C)c3ccc(Oc4ccc(NC(C)C#N)cc4)cc3)cc2)cc1 (stereo unspecified) |  | > 100 µM |
| C#Cc1cccc(NC(=O)Nc2ccc(NC(=O)CCl)cc2)c1 | > 82.5 µM | > 82.5 µM |
| N#C/C(=C\c1ccc(Cl)cc1)c1nc2ccccc2c(=O)[nH]1 |  | > 100 µM |
| Cc1cc2c(C(C)C)c(O)c(O)c3coc(/c1=c1/c(C)cc4c(C(C)C)c(=O)c(=O)c5coc1c45)c32 |  | 17.9 µM |
| Nc1nc(-n2cccn2)nc(-n2cccn2)c1Br | > 100 µM | > 100 µM |
| COc1ccccc1NC(=O)C(C#N)=C(SC)SC |  | > 100 µM |
| Cn1cnc2c(F)c(Nc3ccc(Br)cc3Cl)c(C(=O)NOCCO)cc21 | 2.12 µM and 3.61 µM | > 100 µM |
| O=c1cc(-c2ccc(O)c(O)c2)oc2cc(OC3OC(CO)C(O)C(O)C3O)cc(O)c12 (stereo unspecified) |  | > 100 µM |
| CC1(C)CCSC(/C=C/c2ccccc2)=N1 |  | 31.5 µM |
| CCC(C)C1NC(=O)C(NC(=O)C(CC(C)C)N(C)C(=O)[C@@H]2CC(O)CN2)C(C)OC(=O)[C@H](Cc2ccc(OC)cc2)N(C)C(=O)[C@@H]2CCCN2C(=O)[C@H](CC(C)C)NC(=O)C(C)C(=O)[C@H](C(C)C)OC(=O)CC1O (stereo partly specified) (H-[X29][ξNMeL][ξT][X30]LP[NMeY](Me); ester 3-C) |  | 0.155 µM |
| C[C@]12CC[C@H]3[C@@H](CCC4=CC(=O)CC[C@@H]43)[C@@H]1CC[C@@H]2OC1(O)C(=O)c2ccccc2C1=O |  | > 100 µM |
| O=C(CNC(=O)OCc1ccccc1)NCCCCC(NC(=O)OCc1ccccc1)C(=O)O (stereo unspecified) |  | > 100 µM |
| O=C(CNC(=O)c1cccc2ccccc12)Nc1ccccc1Oc1cccc(O)c1 | 10.8 µM | > 25 µM |
| C/C(=N\NC(=S)N(C)C)c1ncc[nH]1 |  | > 100 µM |
| Cc1nc2ccccc2nc1NS(=O)(=O)c1ccc(N)cc1 |  | > 100 µM |
| Cc1cc2c(cn1)C(=O)OCC2 |  | > 100 µM |
| CSc1nc(=S)[nH]c2n[nH]c(C)c12 |  | > 100 µM |
| COc1cc2c(/C=C3/C(=O)Nc4ccccc43)c(Cl)n(Cc3ccccc3)c2cc1C | > 100 µM | > 100 µM |
